# According to PubChem BioAssay (NCATS):
# This list was built around the results that the source calls inconclusive (neither active nor inactive); the mix of calls is not that of the screen. Potencies of inconclusive entries are doubtful fits and often do not repeat. Active and inactive are the calls of the source. Calls come from the whole dose curve; as a rule, active = well fitted inhibition curve with a large enough effect; inconclusive = small, poorly fitted or top-dose-only effect; inactive = flat fitted curve, though single readings scatter.
# Experiment: BET inhibitor-based combinations targeting novel dependencies in MECOM-rearranged (r) AML: AML-194 cell line (AID 2202237; note: nearly all actives have a fitted effect of over 40% in size;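 for viability (% of control): plate controls were vehicle wells for no effect and wells without cells for full effect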)
# Conditions: AML-194 (MECOM-r AML) viability, CellTiter-Glo, 48 h; series mostly up to 46 µM; viability (% of control): at the top concentration
# Source text: Ecotropic viral insertion site 1 (EVI1) is located on chromosome 3q26.2 as part of the MECOM (MDS and EVI1 complex) locus. Under normal hematopoiesis, EVI1 is a regulator of hematopoietic stem cell maintenance and self-renewal and EVI1 levels decrease as the cells differentiate. In approximately 5-10% of de novo acute myeloid leukemia (AML) EVI1 is aberrantly expressed, including Chromosomal inv(3)(q21;q26.2) or t(3;3)(q21;q26.2) alterations (MECOM-r) that account for about 50% of AML with EVI1 overexpression 31. AMLs with high levels of EVI1 have a poor prognosis and an overall survival time averaging between 10-14 months. EVI1 overexpression confers resistance in leukemia cells, highlighting the need to develop new targeted therapies for EVI1 overexpressing AMLs.
# Here, we performed an unbiased chemical drug screening by evaluating the single agent activity of a collection of 2,480 oncology-focused, approved and investigational drugs (NCATS Mechanism Interrogation Plates, MIPE v5.0) against a panel of seven AML cell lines. These included four MECOM-r cell-lines (AML-191, AML-194, UCSD-AML1 and HNT-34) and three non-MECOM-r AMLs (MV4-11, OCI-AML3 and SET-2). Exploiting the mechanistic redundancy built in the library, we identified target-level sensitivities in MECOM-r AML cells and relative activity as compared to other AML subtypes.
# A collection of 2480 mechanistically annotated dugs (MIPE v5.0) was used to screen four 3q26.2 rearranged AML cell lines and three non-3q26.2 rearranged AML cell lines. This library purposely exploits redundancy by including multiple inhibitors of key onco-targets, while simultaneously encompassing mechanistic diversity, targeting more than 800 distinct mechanisms of action. Briefly, cells were seeded in 5 uL of growth media using a Multidrop Combi dispenser into 1536 well white polystyrene tissue culture treated plates (Corning) at a density of 500cells/well. For each cell-line, for each of the 2480 drugs in MIPE v5.0 library, an 11-point dose curve was generated via a 1536 pin-tool. Plates were incubated for 48 hr at standard incubator conditions, covered by a stainless steel gasketed lid to prevent evaporation. Cell viability was determined by luminescence based, Cell Titer Glo assay (Promega). In detail, 3 uL of Cell Titer Glo were added to each well and plates were incubated at room temperature for 15 min with a stainless-steel lid in place. Luminescence readings were taken using a Viewlux (PerkinElmer) with a 2 s exposure time per plate. Compound dose-response curves were normalized to DMSO and empty well controls on each plate. Quantitative drug activity data from dose-response curves was determined utilizing area Under the Curve (AUC) and Z-transformed AUC (Z-AUC, a mean-centering transformation applied to each individual cell-line screened).
# Potency is the fitted concentration of half-maximal effect; tags give direction and shape of the fitted curve.
Compound,Potency,viability (% of control)
CN(C(=O)CNC(=O)/C=C/c1cccc(Cl)c1)C1CCS(=O)(=O)CC1,"inconclusive: 0.235 µM [inhibitor, full curve]",–
CN(C)C(=O)c1ccc(S(=O)(=O)c2ccc(NC(=O)[C@@](C)(O)C(F)(F)F)c(Cl)c2)cc1,"inconclusive: 4.17 µM [inhibitor, full curve, poor fit]",–
O=C(O)c1cccnc1,–,inactive: 105% [at 92.2 µM]
CONC(=O)Nc1ccc(-c2sc3c(c2CN(C)Cc2ccccc2)c(=O)n(-c2ccccc2)c(=O)n3Cc2c(F)cccc2F)cc1,"inconclusive: 33.2 µM [inhibitor, single point]",–
CN(CCO)C1CCN(c2ccc(Nc3ncc4c5ccnc(F)c5n(C5CCCC5)c4n3)nc2)CC1,"inconclusive: 2.04 µM [inhibitor, partial curve]",–
COc1cccc2c1C(=O)c1c(O)c3c(c(O)c1C2=O)C[C@@](O)(C(=O)CO)C[C@@H]3O[C@H]1C[C@H](N)[C@H](O)[C@H](C)O1,active: 0.186 µM,–
CCNc1cc(NC2CCC(O)CC2)nc(Nc2ccc3c(ccn3Cc3ccccc3)c2)n1 (stereo not given),"inconclusive: 8.33 µM [inhibitor, single point]",–
Cn1cc(-c2cnc3ccc4ccc(CS(=O)(=O)NCc5ccccn5)cc4c(=O)c3c2)cn1,"inconclusive: 29.5 µM [inhibitor, partial curve]",–
CNc1nc(C)nc(N[C@H]2CCC[C@@H](C(=O)NCc3ccc(C#N)cc3C(F)(F)F)C2)n1,–,inactive: 103%
CCCCCCNC(=O)n1cc(F)c(=O)[nH]c1=O,"inconclusive: 14.8 µM [inhibitor, partial curve, poor fit]",–
COc1cc(Oc2ccnc3cc(OC)c(OC)cc23)ccc1NC(=O)NC(C)c1nccs1 (stereo not given),active: 13.2 µM,–
CCN(CC)CCCCNc1ncc2c(n1)N(C)C(=O)N(c1c(Cl)c(OC)cc(OC)c1Cl)C2,"inconclusive: 26.3 µM [inhibitor, single point]",–
COCCOc1cnc2ccn([C@H](C)c3nnc4c(F)cc(-c5cnn(C)c5)cn34)c(=O)c2c1,–,inactive: 108%
O=C(/C=C/c1ccc(O)cc1)c1ccc(O)cc1O,"inconclusive: 37.2 µM [inhibitor, single point]",–
O=C(O)C[C@H]1CCc2c1[nH]c1ccc(OCc3ccc(C4CCCC4)c(C(F)(F)F)c3)cc21,"inconclusive: 26.3 µM [inhibitor, single point]",–
Cc1cn(CCN2CCN(c3ccccc3-c3cc(C#N)cc(C(=O)NCCCN4CCCC4)c3)CC2)c2ccccc12,active: 18.6 µM,–
CC(C)C(N)C(=O)OCC(CO)OCn1cnc2c(=O)[nH]c(N)nc21 (stereo not given),–,inactive: 107%
O=C(O)c1cccc(-c2noc(-c3ccccc3F)n2)c1,"inconclusive: 14.8 µM [inhibitor, partial curve, poor fit]",–
Cc1cc(Nc2ncc3c(n2)N(C)C(=O)N(c2cc(NC(=O)c4cccc(C(F)(F)F)c4)ccc2C)C3)n(C)n1,"inconclusive: 0.372 µM [inhibitor, full curve]",–
CC(C)Cc1ccc(C(C)C(=O)O)cc1 (stereo not given),–,inactive: 109%

Compound,Potency,viability (% of control)
CN1C(=O)[C@@H](NC(=O)c2cc(Cc3ccccc3)on2)COc2ccccc21,"inconclusive: 0.332 µM [inhibitor, full curve, poor fit]",–
CC(C)C[C@H](CC(=O)O)C(=O)N[C@@H](Cc1c[nH]c2ccccc12)C(=O)N[C@@H](C)c1ccccc1,active: 18.6 µM,–
Cc1nc(N)sc1-c1ccnc(Nc2ccc(N3CCOCC3)cc2)n1,active: 4.17 µM,–
COc1ccccc1C(=O)Nc1cc2c(cc1N1CCCC1)n(C)c(=O)n2C,"inconclusive: 26.3 µM [inhibitor, single point]",–
CCc1nc(N)nc(N)c1-c1ccc(Cl)cc1,"inconclusive: 33.2 µM [inhibitor, single point]",–
CCN(c1cc(C#CCN2CCOCC2)cc(C(=O)NCc2c(C)cc(C)[nH]c2=O)c1C)C1CCC(N(C)CCOC)CC1 (stereo not given),–,inactive: 103%
Cc1nn(Cc2ccccc2Cl)c(C)c1CN(C)CC(O)COc1ccc(Cl)cc1 (stereo not given),"inconclusive: 29.5 µM [inhibitor, single point]",–
CCCc1nc(C)c2c(=O)[nH]c(-c3cc(S(=O)(=O)N4CCN(CC)CC4)ccc3OCC)nn12,–,inactive: 106%
CCOC(=O)C1=C(C)NC(=S)NC1c1cccc(O)c1 (stereo not given),"inconclusive: 37.2 µM [inhibitor, single point]",–
CC(O)(C#Cc1ccc2c(c1)N(c1nc(N)ncc1Cl)CC2)c1nccs1 (stereo not given),"inconclusive: 26.3 µM [inhibitor, single point]",–
COc1cc(NCc2ccc3nc(N)nc(N)c3c2C)cc(OC)c1OC,"inconclusive: 23.5 µM [inhibitor, single point]",–
Nc1ccn(C[C@@H](CO)OCP(=O)(O)O)c(=O)n1,–,inactive: 105% [at 8.46 µM]
NS(=O)(=O)c1ccc(Cc2c(-c3cccc(-c4ccccc4)c3)nn(-c3nc(C(=O)O)cs3)c2CC2CC2)cc1,"inconclusive: 20.9 µM [inhibitor, partial curve, poor fit]",–
C[C@@H]1CN(CC(=O)N2CC(C)(C)c3ncc(Cc4ccc(F)cc4)cc32)[C@@H](CN2CCOC[C@H]2C)CN1,"inconclusive: 13.2 µM [inhibitor, partial curve, poor fit]",–
CC(C)[C@](O)(c1ccc2cc(OC(F)F)c(OC(F)F)cc2c1)c1cn[nH]n1,"inconclusive: 20.9 µM [inhibitor, partial curve, poor fit]",–
Cc1ccc(C(=O)Nc2ccc(Oc3cc4cnn(C)c4cc3-c3cn[nH]c3)c(F)c2)c(=O)n1-c1ccc(F)cc1,"inconclusive: 5.25 µM [inhibitor, full curve]",–
Cn1ncc(Cl)c1-c1cc(C(=O)N[C@H](CN)Cc2cccc(F)c2)sc1Cl,active: 18.6 µM,–
CNc1nccc(-c2cccnc2Oc2cc(C(=O)Nc3cccc(C(F)(F)F)c3)ccc2C)n1,active: 6.61 µM,–
COC(C)(C)CCn1nc(Nc2c(C)cccc2C)c2cnc(Nc3ccc(OCCN4CCCC4)c(F)c3)nc21,active: 14.8 µM,–
COc1cccc2c1c(O)c(C(=O)N(C)c1ccc(C(F)(F)F)cc1)c(=O)n2C,–,inactive: 97.1%
